Source: publication PMC3733129
Results are given in words; binding and its absence hold for the method and conditions named. For some assays here: Binding seen in cells or lysates may run through a third protein. Some entries that bind do so weakly or less than the wild type.

Protein sequences, listed by entry. Tags and fused reporters are not part of them.
UniProt P18887: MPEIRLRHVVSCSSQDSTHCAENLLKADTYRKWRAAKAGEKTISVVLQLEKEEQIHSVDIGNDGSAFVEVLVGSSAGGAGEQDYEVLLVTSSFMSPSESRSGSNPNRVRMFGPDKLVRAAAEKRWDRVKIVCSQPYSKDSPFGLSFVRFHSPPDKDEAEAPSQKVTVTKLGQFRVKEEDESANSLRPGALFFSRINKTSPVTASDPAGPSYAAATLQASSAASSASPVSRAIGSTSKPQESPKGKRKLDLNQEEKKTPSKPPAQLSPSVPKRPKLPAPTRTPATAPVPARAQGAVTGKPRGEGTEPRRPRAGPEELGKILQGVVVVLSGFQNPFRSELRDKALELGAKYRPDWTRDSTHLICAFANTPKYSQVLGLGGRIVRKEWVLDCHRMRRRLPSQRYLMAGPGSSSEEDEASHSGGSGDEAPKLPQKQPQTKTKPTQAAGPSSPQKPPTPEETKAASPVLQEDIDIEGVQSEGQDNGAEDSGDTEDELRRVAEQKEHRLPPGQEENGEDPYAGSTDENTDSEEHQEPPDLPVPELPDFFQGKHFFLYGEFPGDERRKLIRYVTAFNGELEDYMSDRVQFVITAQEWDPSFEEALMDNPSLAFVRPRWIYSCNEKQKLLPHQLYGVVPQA

Tests used:
[1] = target: Recombinant wild-type (WT) NEIL1 (human) (UniProt Q96FI4); assay: far-Western, overlay or dot blot; WT NEIL1 and N311 (40 pmol) on nitrocellulose after 12% SDS-PAGE, denatured in situ with 6M guanidine-HCl and renatured; membrane incubated with Polβ, LigIIIα or XRCC1 (10 pmol/mL) in PBS, 0.5% nonfat dried milk, 0.05% Tween 20, 10 mM TMAO, 1 mM DTT for 3 h; immunoblotting; both purified
[2] = target: FLAG-N311 mutant of NEIL1 (human) (UniProt Q96FI4); assay: proximity ligation; In situ PLA (Duolink) in fixed, permeabilised HEK293 cells stably expressing FLAG-WT NEIL1 or FLAG-N311; mouse FLAG Ab and rabbit Abs for Polβ, LigIIIα or XRCC1; nuclear foci
[3] = target: FLAG-tagged WT NEIL1 (human) (UniProt Q96FI4); assay: as above
[4] = target: FLAG-N311 mutant of NEIL1 (human) (UniProt Q96FI4); assay: co-IP; HEK293 cells stably expressing FLAG-NEIL1 or FLAG-N311; lysate digested with 500 units/ml benzonase at 37 °C for 30 min; anti-FLAG Ab agarose beads, 3 h at 4 °C; washed with cold Tris-buffered saline; Western analysis
[5] = target: FLAG-tagged WT NEIL1 (human) (UniProt Q96FI4); assay: as above

binding [1] | binding [2] | binding [3] | binding [4] | binding [5] | Substance
binds | – | – | – | – | XRCC1, recombinant (from UniProt P18887 1-633)
– | no binding | binds | no binding | binds | XRCC1, endogenous in HEK293 cells (from UniProt P18887 1-633)
